Values of other authors in patent publication US9181281B2, “Prodrugs of neuraminidase inhibitors” (priority 2008, dated 2015).

Test system: influenza virus replication
Details: cited from earlier work

## CCC(CC)O[C@@H]1C=C(C(=O)O)C[C@H](NC(=N)N)[C@H]1NC(C)=O [GOC, guanidino oseltamivir carboxylate]
  potency in tissue culture relative to oseltamivir carboxylate: 10 times
